Reference: PubChem BioAssay AID1346428 (National Center for Advancing Translational Sciences (NCATS), 2018)
Among all 48,000 compounds or so, about 1,200 (2.5%) were called active. Another 2% or so got no clear call; they are omitted.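 Rule for the calls: active = activation of at least 60% and not above a set upper limit (about 1 call in 100 departs from these limits); inconclusive = activation of 40% to 60%, or above that upper limit; inactive = activation under 40%.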 The list shows a part of the results.

molecular target: Probable G-protein coupled receptor 32 (Homo sapiens) (UniProt O75388); assay: qHTS for Agonists of Human Resolvin D1 Receptor DRV1; details: CHO-K1 GPR32 beta-arrestin PathHunter luminescence, 90 min; at 76.9 µM; hits give high values; zero percent set by DMSO-only wells; note: 0% is about no effect
UniProt O75388, sequence (O75388 whole entry, looked up): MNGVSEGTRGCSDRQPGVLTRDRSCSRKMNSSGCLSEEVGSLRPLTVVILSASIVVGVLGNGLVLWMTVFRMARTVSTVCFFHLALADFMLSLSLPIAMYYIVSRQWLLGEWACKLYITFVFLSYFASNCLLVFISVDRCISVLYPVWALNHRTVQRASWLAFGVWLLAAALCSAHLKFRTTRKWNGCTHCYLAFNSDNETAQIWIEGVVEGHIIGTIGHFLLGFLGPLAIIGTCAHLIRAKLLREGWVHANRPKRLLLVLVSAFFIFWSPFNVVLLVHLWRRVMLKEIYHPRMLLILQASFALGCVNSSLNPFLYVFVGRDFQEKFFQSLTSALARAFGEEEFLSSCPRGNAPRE
Outline: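 Cells are plated overnight, treated with compounds in DMSO for 90 minutes at 37 °C, and developed with PathHunter detection reagent for 1 hour before luminescence is read; signal reflects beta-arrestin binding to GPR32 in engineered CHO-K1 cells.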

Structure (SMILES) | activation
COc1ccc(CCNC(=O)CCCn2c(=O)c3cccn3c3cccnc32)cc1OC | inactive: -11.9%
Cc1ccc2c(CN3CCN(Cc4ccccc4Cl)CC3)cc(=O)oc2c1 | inactive: -16.1%
COc1ccccc1CNC(=O)Cc1c(C)c2c(cc(C)c3c(C)c(C)oc32)oc1=O | inactive: -7.53%
CN1[C@@H](CC(=O)c2ccccc2)CCC[C@H]1C[C@H](O)c1ccccc1 | inactive: -8.59%
COc1ccc(OCc2ccc(-c3nc(C#N)c(N4CCN(C)CC4)o3)o2)cc1 | inactive: -9.17%
Cc1ccccc1C(=O)c1cccn1CC(=O)NCc1ccc(Cl)cc1 | inactive: -19.3%
CCC1CN(C(=O)NCc2cccc(OC)c2)c2cc(Cl)ccc2O1 (centres undefined) | inactive: -20.2%
CCCCC1CCC(C(=O)N2CC(=O)Nc3ccc(F)cc3C2c2ccc(F)cc2)CC1 (centres undefined) | inactive: -35%
COc1ccc(C2CC(=O)Nc3c2c(=O)nc2c(C)cccn32)cc1OC (centres undefined) | inactive: 7.56%
Cc1nc2sc(C(=O)N(C)Cc3ccccc3)c(NC(=O)c3ccccc3)c2c(C)c1Cl | inactive: 35.6%
CCOC(=O)c1cc2c(=O)n3ccccc3nc2n(CC2CCCO2)c1=NC(=O)c1ccc(C(C)(C)C)cc1 (centres undefined) | inactive: -3.04%
CCOC(=O)c1c(NC(=O)COc2cccc(C(F)(F)F)c2)sc2c1CCC(C)C2 (centres undefined) | inactive: -9.49%
CCN(CC)c1nn2c(=O)c(C(=O)NCCc3ccc(C)cc3)cnc2s1 | inactive: -7.17%
COc1ccc(NC(=O)c2ccc(CN3C(=O)CCn4nc(C)cc43)cc2)c(OC)c1 | inactive: -1.99%
CCn1c2ccccc2c2nnc(N3CCN(c4ccc(F)cc4)CC3)nc21 | inactive: -18.9%
CCCC(=O)Nc1ccc2c(c1)nc(CN1CCN(C(=O)OCC)CC1)n2C(C)C | inactive: -0.477%
COc1ccc(NC(=O)CSc2cn(CC(=O)N3CCCCC3)c3ccccc23)c(OC)c1 | inactive: -16.8%
CCOc1ccc(CNC(=O)c2ccc(Sc3ccc(Cl)cc3)c(NC(C)=O)c2)cc1 | inactive: -3.02%
Cc1cc(C)cc(Nc2ncnc3c2nc2n3CCCC2)c1 | inactive: -15.4%
CCOc1ccc(NC(=O)CSc2oc(-c3ccco3)nc2S(=O)(=O)c2ccc(C)cc2)cc1 | inactive: -4.69%
COc1ccc(C)c2sc(NC(=O)c3ccc(S(=O)(=O)N4CCCCC4)cc3)nc12 | inactive: 3.9%

Structure (SMILES) | activation
CC(C)CCNC(=O)CN1C(=O)CCn2nc(-c3cn(C)c4ccccc34)cc21 | inactive: -12.2%
COc1ccc(N2CC(NC(=O)COc3ccccc3F)CC2=O)cc1OC (centres undefined) | inactive: 7.58%
CCOc1ccc(S(=O)(=O)NCCc2csc(-c3ccc(Cl)cc3)n2)cc1 | active: 69.2%
Cc1nc(S(=O)(=O)N2CCN(c3ccc(Cl)cc3)CC2)cn1C | inactive: 10.6%
Cc1nnc(SCc2cc(=O)c3ccccc3[nH]2)s1 | inactive: 31.3%
CCCN1CCN(CCCNC(=O)c2cc3c(Cl)nc4ccccc4c3s2)CC1 | inactive: 38.4%
CCCOc1ccc(NC(=O)CC2C(=O)N(c3ccc(C)cc3)C(=O)N2C(C)C)cc1 (centres undefined) | inactive: -12.9%
CCCOc1ccc(/C=C/C(=O)Nc2sc(C)c(C)c2C(=O)OCC)cc1OC | inactive: -11.5%
CCOc1ccc(CCNC(=O)c2ccc(-c3nc(CSc4ccc(C)cc4)c(C)o3)cc2)cc1 | inactive: -7.92%
COC(=O)c1c(NC(=O)c2cc(=O)c3c(C)cc(C)cc3o2)sc2c1CCCC2 | inactive: 21.7%
Cc1ccc(-n2ncc3c(N4CCN(c5ccccc5)CC4)ncnc32)cc1C | inactive: 6.17%
Cc1cccc(NC(=O)CN(c2ccc(C(C)C)cc2)S(=O)(=O)c2c(C)nn(C)c2C)c1C | inactive: -13.1%
CCOC(=O)C1CCN(S(=O)(=O)c2cc(-c3onc(C)c3C)ccc2C)CC1 | inactive: -2.6%
COCCn1c(C)cc(O)c(C(c2ccccc2)N2CCC(C)CC2)c1=O (centres undefined) | inactive: -6.21%
CC(=O)N1CCCc2cc(S(=O)(=O)N3CCC(C(=O)N(Cc4ccccc4)C(C)C)CC3)ccc21 | inactive: 6.57%
O=C(c1c2c(nc3ccccc13)C(=O)N(C1CCCCC1)C2)N1CCN(c2ccc(F)cc2)CC1 | inactive: 13.6%
CCOC(=O)N1CCN(C(=O)c2ccc3c(c2)N(Cc2ccccc2F)C(=O)c2ccccc2S3=O)CC1 (centres undefined) | inactive: -3.74%
CCc1ccccc1Nc1cc(C(=O)NCc2ccc(C)cc2)c2ccccc2n1 | inactive: -21.2%
COc1ccc(N2C(=O)CSC23C(=O)N(C)c2ccccc23)cc1Cl (centres undefined) | inactive: 6.39%
OC[C@@H](O)[C@@H](O[C@@H]1O[C@H](CO)[C@H](O)[C@H](O)[C@H]1O)[C@H](O)[C@@H](O)CO | inactive: -8.49%
CCOc1ccc(NC(=O)c2cc3sc(Cl)cc3n2CC)cc1 | inactive: -5.62%

Structure (SMILES) | activation
COc1ccc(C)cc1Nc1nc2c(S(=O)(=O)c3cccc(Cl)c3)nnn2c2ccsc12 | inactive: 1.87%
Cc1ccc(S(=O)(=O)c2cn(Cc3cccc(F)c3)c3cc(N4CCCC4)c(F)cc3c2=O)cc1 | inactive: -14.3%
CCOC(=O)c1c(S(=O)(=O)N2CCCC(C(=O)Nc3ccc(OCC)cc3)C2)c(C)n(C)c1C (centres undefined) | inactive: -6.33%
Cc1ccc(-c2cc(NC(=O)c3ccccc3Cl)on2)cc1 | inactive: 12.6%
CCCOc1ccccc1-c1nc(SCC(=O)c2ccccc2)n[nH]1 | inactive: -0.831%
c1ccc2[nH]c(-c3cscn3)nc2c1 | inactive: -13.8%
CCOc1cc(CNS(=O)(=O)c2ccc3c(c2)CC(=O)N3C)cc(OCC)c1OCC | inactive: -10.5%
O=C(Nc1ccc(C(=O)N2CCN(c3ccc(F)cc3)CC2)cc1)c1nsc2ccccc12 | inactive: -19.4%
CCN1CCN(CCCNC(=O)c2ccc3nc(Cc4ccc(OC)cc4)oc3c2)CC1 | inactive: 6.38%
COc1ccc(Br)cc1C(=O)Nc1ccc2oc(-c3cccnc3)nc2c1 | inactive: 6.06%
CC(=O)Nc1ccc(S(=O)(=O)N2CCC(c3ccncc3)CC2)cc1 | inactive: -10.5%
CCCCN(CCCC)c1ncnc2c1cnn2-c1cccc(C)c1 | inactive: 19.8%
Cc1cc(C)n(C(C)CC(=O)NCc2ccccc2C)n1 (centres undefined) | inactive: -3.93%
CCCN(CCC)CCNC(=O)Cn1cnc2sc(C)c(S(=O)(=O)N3CCC(C)CC3)c2c1=O | inactive: -1.69%
COc1ccccc1CNC(=O)CN1C(=O)CCc2cc(S(=O)(=O)N3CCCCC3)ccc21 | inactive: 21.4%
COc1ccc(C(=O)NCCn2cc(SCc3cccc(F)c3)c3ccccc32)cc1OC | inactive: 36.4%
O=C(CSc1nc(-c2cccs2)nc2cc(=O)[nH]n12)Nc1ccccc1 | inactive: -45%
COc1ccc(CCNC(=O)Cn2cc(C(=O)c3ccc(Cl)cc3)c(=O)c3ccc(C)nc32)cc1OC | inactive: 3.42%
CCOC(=O)C1CCN(c2nc3c(S(=O)(=O)c4ccc(Br)cc4)nnn3c3ccsc23)CC1 | inactive: -23.5%
FC(F)(F)c1cccc(-n2cc(-c3ccccc3)c3c(N4CCCCC4)ncnc32)c1 | inactive: -9.75%
CCc1ccc(NC(=O)CC(c2cc(OC)c(OC)c(OC)c2)N2Cc3ccccc3C2=O)cc1 (centres undefined) | inactive: 1.72%

Structure (SMILES) | activation
CCOC(=O)c1cccc(NC(=O)Cn2nc3c(cc2=O)CCCC3)c1 | inactive: -9.28%
Cn1c(=O)n(C)c2cc(NS(=O)(=O)c3ccc(F)cc3)c(NCc3ccccc3)cc21 | inactive: 28.5%
COc1ccc(S(=O)(=O)N(CCc2ccccc2)CC(=O)NCc2ccccc2)cc1 | inactive: -2.63%
CC(=O)C(C)=O | inactive: -2.02%
COCCN1C(=O)c2oc3cc(C)cc(C)c3c(=O)c2C1c1cccc(O)c1 (centres undefined) | inactive: -3.18%
COc1ccc(CNC(=O)c2cc3c(-c4ccc(Cl)cc4)nn(C)c3s2)cc1 | inactive: -17%
Cc1ccc(N2CC(C(=O)NCCS(=O)(=O)N3CCN(c4ccccc4)CC3)CC2=O)cc1 (centres undefined) | inactive: -8.83%
Cc1c(C(=O)NC(C)c2ccccc2)sc2ncnc(N(C)C3CCCCC3)c12 (centres undefined) | inactive: -40.3%
Cc1ccc(-c2c(CN3CCN(c4cc(C)ccc4C)CC3)csc2C)cc1 | inactive: -30.4%
O=S(=O)(Nc1ccc(-c2ccc(N3CCCCC3)nn2)cc1)c1ccc(OC(F)(F)F)cc1 | inactive: -3.43%
CCCn1cc(S(=O)(=O)c2cccc(Cl)c2)c(=O)c2cc(F)c(N3CCOCC3)cc21 | inactive: -17.5%
CCN(CC)C(=O)CSc1nnc2ccc3ccccc3n12 | inactive: 7.35%
CCc1ccccc1NC(=O)CN1C(=O)CCn2nc(-c3cccn3C)cc21 | inactive: -8.99%
Cc1nn(-c2ccc(N3CCCCC3)nn2)c(C)c1CCC(=O)NCc1ccc(F)cc1 | inactive: -10.7%
CCN(Cc1nc(-c2cccc(C)c2)no1)S(=O)(=O)c1ccc(C)cc1 | inactive: -4.2%
O=C(COc1ccccc1)Nc1sc2c(c1C(=O)Nc1ccccc1Cl)CCCCC2 | inactive: 13.8%
OC[C@H]1O[C@@H](n2cnc3cncnc32)[C@H](O)[C@@H]1O | inactive: 9.52%
COC(=O)c1cc(NC(=O)Nc2ccc3snnc3c2)cc(C(=O)OC)c1 | inactive: -8.86%
Cc1ccc(C)c(N2C(=O)N(Cc3c(F)cccc3Cl)c3ccccc3S2(=O)=O)c1 | inactive: -4.37%
COc1ccc(N(CC(=O)Nc2ccc(C)c(C)c2)S(=O)(=O)c2ccc(C)cc2)cc1OC | inactive: -16%
Cc1cccc(C)c1NC(=O)CN1C(=O)CCSc2ccc(S(=O)(=O)N3CCCC3)cc21 | inactive: -11.7%
